Measured values taken from the supplement of paper PMC9588766.
Where a name gives a salt, the structure may show the parent alone. ± gives the standard deviation of the averaged measurements. The full ranking holds about 2,000 compounds; the median of “cell viability relative to DMSO control (compound alone)” is about 0.98, and the lowest 2% start at about 0.23. The list shows a part of the results.

Tested on: PDC-DUC18828
Assay: cell viability relative to DMSO control (compound alone) (fraction); PDC-DUC18828 is a patient-derived cholangiocarcinoma cell line; higher = less growth inhibition
Conditions: 1 µM; 72 h
Procedure: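 Selleck Bioactive library screen in the patient-derived FGFR2-G3BP2 fusion-positive ICC cell line PDC-DUC18828 (500 cells/well). Each compound was tested at 1 uM alone, in triplicate, for 72 h. Viability was read by CellTiter-Glo and normalised to plate DMSO controls.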

Structure (SMILES)	cell viability
CCO[C@@H]1OC(=O)C[C@@H]1NC(=O)[C@@H]1CCCN1C(=O)[C@@H](NC(=O)c1ccc(N)c(Cl)c1)C(C)(C)C	1.09 ± 0.016
O=C(Nc1cc(C(F)(F)F)ccc1N1CCCCC1)c1ccncc1	1.01 ± 0.016
Cc1ccc(NC(=O)c2ccc(CN3CCN(C)CC3)cc2)cc1Nc1nc(-c2cccnc2)cs1 [Masitinib (AB1010)]	1.05 ± 0.035
COc1nc(C)nc(Cl)c1NC1=NCCN1 [Moxonidine]	1.06 ± 0.04
CCCC[C@@H](C=O)NC(=O)[C@H](CC(C)C)NC(=O)OCc1ccccc1 [Calpeptin]	1.05 ± 0.066
Cc1ccc(S(=O)(=O)NC(=O)NN2CC3CCCC3C2)cc1 (stereo not drawn) [Gliclazide]	0.9637 ± 0.0073
Cc1cc(Cn2cnc3c2CC(C(=O)O)N(C(=O)C(c2ccccc2)c2ccccc2)C3)ccc1N(C)C (stereo not drawn)	1 ± 0.032
O=c1c(O)c(-c2cc(O)c(O)c(O)c2)oc2cc(O)cc(O)c12 [Myricetin]	0.902 ± 0.043
C[C@H]1C[C@@H]2[C@H]([C@@H](O)C[C@@]3(C)[C@H]2CC[C@]3(O)C(=O)CO)[C@@]2(C)C=CC(=O)C=C12 [Methylprednisolone]	0.91 ± 0.017
O=C1c2ccc(Nc3ccc(F)cc3F)cc2CCc2ccc(OC[C@H](O)CO)cc21 [Skepinone-L]	1 ± 0.012
CCCNCC(O)COc1ccccc1C(=O)CCc1ccccc1 (stereo not drawn) [Propafenone HCl]	0.997 ± 0.026
NC(=O)C(c1ccccc1)(c1ccccc1)[C@@H]1CCN(CCc2ccc3c(c2)CCO3)C1 [Darifenacin HBr]	1.04 ± 0.02
COc1ccccc1OCC(O)CN1CCN(CC(=O)Nc2c(C)cccc2C)CC1 (stereo not drawn) [Ranolazine 2HCl]	1.09 ± 0.084
COc1ccccc1OCC(O)CN1CCN(CC(=O)Nc2c(C)cccc2C)CC1 (stereo not drawn) [Ranolazine]	0.973 ± 0.048
CN(C)C(=S)NN=C(c1ccccn1)c1ccccn1	0.305 ± 0.012
Nc1nc2n[nH]nc2c(=O)[nH]1 [Azaguanine-8]	1.08 ± 0.062
CN(C)c1nc(N(C)C)nc(N(C)C)n1 [Altretamine]	0.969 ± 0.042
COc1cc2c(Oc3ccc4[nH]c(C)cc4c3F)ncnc2cc1OCCCN1CCCC1 [Cediranib (AZD2171)]	0.875 ± 0.031
CC(=O)O[C@]1(C(C)=O)CC[C@H]2[C@@H]3C[C@H](C)C4=CC(=O)CC[C@]4(C)[C@H]3CC[C@@]21C [Medroxyprogesterone acetate]	1.01 ± 0.035

Structure (SMILES)	cell viability
O=C(O)c1cc(-c2ccccc2)nc2ccccc12 [Cinchophen]	1.04 ± 0.028
O=S(=O)(O)c1cc(O)ccc1O [Ethamsylate]	1.04 ± 0.027
CCC(=O)O[C@]1(C(=O)CCl)[C@@H](C)C[C@H]2[C@@H]3CCC4=CC(=O)C=C[C@]4(C)[C@@]3(F)[C@@H](O)C[C@@]21C [Clobetasol propionate]	0.949 ± 0.027
O=C1C[C@@H](c2ccc(O)cc2)Oc2cc(O)cc(O)c21 [Naringenin]	0.969 ± 0.051
CCOC(=O)[C@H](CCc1ccccc1)N[C@H]1CS[C@H](c2cccs2)CN(CC(=O)O)C1=O [Temocapril HCl]	1 ± 0.033
COc1ccc(F)c(F)c1C(=O)c1cnc(NC2CCN(S(C)(=O)=O)CC2)nc1N	0.705 ± 0.047
CCCCC(F)(F)[C@@]1(O)CC[C@H]2[C@@H](CC(=O)[C@@H]2CCCCCCC(=O)O)O1 [Lubiprostone]	1.04 ± 0.026
COc1ccc(C2CNC(=O)C2)cc1OC1CCCC1 (stereo not drawn) [Rolipram]	1.03 ± 0.011
O=c1c(O)c(-c2ccc(O)cc2O)oc2cc(O)cc(O)c12 [Morin Hydrate]	0.888 ± 0.067
OC[C@H]1O[C@@H](Oc2cc(O)cc(/C=C/c3ccc(O)cc3)c2)[C@H](O)[C@@H](O)[C@@H]1O [Polydatin]	0.913 ± 0.051
CC(=O)Nc1nc(C)c(-c2ccc(Cl)c(S(=O)(=O)NCCO)c2)s1	0.897 ± 0.036
Cc1nc(=O)c2cc(CN(C)c3ccc(C(=O)N[C@@H](CCC(=O)O)C(=O)O)s3)ccc2[nH]1 [Raltitrexed]	0.973 ± 0.031
CCCOc1ccn2c(C(C)=O)cc(-c3ccccc3S(C)(=O)=O)c2c1	0.939 ± 0.0097
CC(/C=C1\SC(=S)N(CC(=O)O)C1=O)=C\c1ccccc1 [Epalrestat]	0.978 ± 0.068
O=C1c2ccccc2C(=O)c2c1ccc(O)c2O [Alizarin]	0.993 ± 0.058
CC(=O)[C@]1(O)Cc2c(O)c3c(c(O)c2[C@@H](O[C@H]2C[C@H](N)[C@H](O)[C@H](C)O2)C1)C(=O)c1ccccc1C3=O [Idarubicin HCl]	0.122 ± 0.009
O=c1oc2ccccc2c(O)c1Cc1c(O)c2ccccc2oc1=O [Dicoumarol]	1.04 ± 0.04
CS(=O)(=O)N1CCc2c(-c3cnc(N)nc3)nc(N3CCOCC3)nc21	0.895 ± 0.014
CC[C@H](C)C(=O)O[C@H]1CCC=C2C=C[C@H](C)[C@H](CC[C@@H]3C[C@@H](O)CC(=O)O3)[C@H]21 [Mevastatin]	0.9666 ± 0.0066
